Results reported in article doi:10.1101/2020.04.27.064493 (bioRxiv, 2020).

B1: histone H3 peptide ([…]), unmodified (peptide)
peptide: not shown
B2: histone H3 peptide ([…]) trimethylated at K9 (peptide)
peptide: not shown
modifications: trimethyl-lysine at K9

Columns and labels:
[1] = target: human DNMT1 RFTS domain (residues 351-597) (human, UniProt P26358 351-597); test: ITC
[2] = target: human DNMT1 RFTS domain (residues 351-597) W465A (human, UniProt P26358 351-597, W465A); test: ITC

Row | Binder | Kd [1] [µM] | fold reduction of affinity against wild-type hDNMT1 RFTS [2] [fold]
1 | B1 | 6.4 | ~5
2 | B2 | 1.3 | ~17
